Data as given in article PMC6919601, “Identification of Plasmodium dipeptidyl aminopeptidase allosteric inhibitors by high throughput screening” (PLoS ONE, 2019).
Out of some 110,000 compounds screened, about 230 (0.21%) showed an effect of 50% or more. The list shows a part of the results.

Biological target: DPAP1 (Plasmodium falciparum, UniProt Q8IIJ9)
Experiment: primary screen, percent inhibition; read by cleavage of a fluorogenic dipeptide substrate; higher = more effect of the substance
Parameters: species or system P. falciparum D10 trophozoite lysates; single well
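Note: 30 min substrate incubation versus DMSO and 10 µM JCP410 controls.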

DPAP1, sequence (Q8IIJ9 whole entry, looked up): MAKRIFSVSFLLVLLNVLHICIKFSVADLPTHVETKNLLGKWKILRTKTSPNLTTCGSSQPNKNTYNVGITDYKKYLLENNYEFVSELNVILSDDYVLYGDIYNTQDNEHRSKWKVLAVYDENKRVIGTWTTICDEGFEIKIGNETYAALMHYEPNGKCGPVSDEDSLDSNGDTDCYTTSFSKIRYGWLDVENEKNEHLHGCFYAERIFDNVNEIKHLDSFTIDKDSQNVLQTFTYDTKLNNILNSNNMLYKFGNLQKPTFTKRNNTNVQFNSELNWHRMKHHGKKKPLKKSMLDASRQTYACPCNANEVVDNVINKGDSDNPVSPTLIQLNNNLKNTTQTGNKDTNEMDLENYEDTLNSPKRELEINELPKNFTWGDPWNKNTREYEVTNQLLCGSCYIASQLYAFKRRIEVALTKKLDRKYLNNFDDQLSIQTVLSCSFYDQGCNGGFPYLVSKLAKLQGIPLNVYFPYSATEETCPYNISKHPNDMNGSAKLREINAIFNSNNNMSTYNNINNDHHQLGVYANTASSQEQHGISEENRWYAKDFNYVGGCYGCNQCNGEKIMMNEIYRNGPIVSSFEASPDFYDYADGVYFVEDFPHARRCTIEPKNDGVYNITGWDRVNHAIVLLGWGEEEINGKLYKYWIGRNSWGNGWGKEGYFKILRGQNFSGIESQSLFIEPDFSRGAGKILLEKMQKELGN

Compared with `CC(C)(C)c1ccc(/C=c2\sc3ncnn3c2=O)cc1`, `CCOc1ccc(/C=c2\sc3nc(-c4ccc(F)cc4)nn3c2=O)cc1OC` is lower in “% Inhibition @ 10 uM” value: 0.222% for the first, -1.18% for the second.

First: C=CCn1c(CCNC(=O)C(C)C)nc2ccccc21
Second: CC(C)C(=O)Nc1c2c(nc3ccccc13)N(C)CC2
The “% Inhibition @ 10 uM” value of the first is higher: -1.74% for the first, -1.98% for the second.

Going from `O=C1C(/C=N/c2ccc(S(=O)(=O)Nc3ncccn3)cc2)=C(O)c2ccccc21` to `CC(C)NC(=O)COc1ccc(S(=O)(=O)NC(C)c2ccccc2)cc1` (centres unmarked), the “% Inhibition @ 10 uM” value falls from -2.68% to -2.74%.

Compared with `COc1ccc(S(=O)(=O)Nc2ccccc2C(F)(F)F)cc1`, `FC(F)(F)c1ccccc1-c1ncnn1-c1ccc(Cl)cc1` is higher in “% Inhibition @ 10 uM” value: -6.12% for the first, -4.03% for the second.

Going from `NC(=O)c1[nH]ncc1NCc1ccccc1O` to `O=C(O)c1c(O)nnc(-c2ccccc2)c1-c1ccccc1`, the “% Inhibition @ 10 uM” value rises from -0.222% to 0.221%.

Going from `CCCCOc1ccccc1C1C2=C(O)CCCC2=NC(C)=C1C(=O)OC(C)C` (centres unmarked) to `CCOCCCNC(=O)C(NC(=O)c1ccccc1O)c1ccc(C)cc1` (centres unmarked), the “% Inhibition @ 10 uM” value falls from 11.6% to 3.61%.

Compared with `COc1ccc(N2CCN(C(=O)c3nn(C)c(C(F)(F)F)c3Cl)CC2)cc1`, `O=C(CSc1ncnc2[nH]cnc12)N1CCN(c2ccc(Cl)cc2)CC1` is lower in “% Inhibition @ 10 uM” value: -0.99% for the first, -8.41% for the second.

Going from `Cc1cc(Cl)ccc1NC(=O)c1cccc([N+](=O)[O-])c1C` to `CC(N)CNc1ccc(Cl)cc1[N+](=O)[O-]` (centres unmarked), the “% Inhibition @ 10 uM” value rises from -8.37% to 7.66%.

Compared with `CC[C@H](NC(=O)[C@H](C[C@H](C)c1ccccc1)NC(=O)c1cc2c(C(F)(F)F)nn(C)c2s1)C(=O)c1nc2ccccc2o1`, `O=C(C1=C(O)C(=O)N(CCCn2ccnc2)C1c1ccccc1)c1cc2ccccc2o1` (centres unmarked) is higher in “% Inhibition @ 10 uM” value: -6.56% for the first, 3.65% for the second.

Going from `COc1ccc(C(=O)N(c2ccccc2)c2ccc3ccccc3c2)cc1OC` to `CC1CC(Nc2ccccc2)c2ccccc2N1C(=O)c1ccc([N+](=O)[O-])cc1` (centres unmarked), the “% Inhibition @ 10 uM” value falls from 23.4% to 1.41%.

First: O=C(O)CC(/N=C/C1=C(O)CCCC1=O)C(=O)O (centres unmarked)
Second: O=C(O)C1C2C=CC(CC2)C1C(=O)O (centres unmarked)
The “% Inhibition @ 10 uM” value of the first is lower: 0.484% for the first, 6.31% for the second.

Compared with `OC(c1ccccc1)c1ccc(Cl)s1` (centres unmarked), `Nc1nc(O)ncc1-c1ccc(-c2ccccc2)s1` is lower in “% Inhibition @ 10 uM” value: -7.13% for the first, -7.89% for the second.

Compared with `O=C1S/C(=C\c2ccccc2O)C(=O)N1CCOc1ccccc1`, `CCCc1ccc(OCCN2C(=O)c3ccccc3C2=O)cc1` is lower in “% Inhibition @ 10 uM” value: 2.01% for the first, -1.85% for the second.

Compared with `COc1ccccc1/C=C/C=C1\N=C(c2ccccc2C)OC1=O`, `CCCOc1ccc(C(CC(=O)O)NC(=O)c2c(-c3ccccc3Cl)noc2C)cc1` (centres unmarked) is lower in “% Inhibition @ 10 uM” value: 0.997% for the first, -2.28% for the second.

Compared with `Cc1ccc(OC(C)C(=O)Nc2cccc(O)c2)cc1` (centres unmarked), `Cc1ccc(NC(=O)CCOc2ccccc2)cc1C` is higher in “% Inhibition @ 10 uM” value: 1.28% for the first, 4.67% for the second.

Going from `O=C1CC(c2ccccc2)S(=O)(=O)c2ccccc2N1` (centres unmarked) to `CC(=O)C1=C(O)C(=O)N(Cc2ccccc2)C1c1ccccc1F` (centres unmarked), the “% Inhibition @ 10 uM” value falls from -3.92% to -5.23%.

First: COc1ccc(C(CC(=O)NC2CCN(Cc3ccccc3)CC2)N2Cc3ccccc3C2=O)cc1 (centres unmarked)
Second: Clc1ccc(CCNC2CCN(Cc3ccccc3)CC2)c(Cl)c1
The “% Inhibition @ 10 uM” value of the first is lower: -9.9% for the first, -1.5% for the second.

Compared with `COc1ccc(CNCc2ccc(OC)c(OC)c2OC)cc1`, `COc1ccc(C2CC3=Nc4ccccc4NC(c4cc(OC)c(O)c(OC)c4)C3=C(O)C2)cc1` (centres unmarked) is lower in “% Inhibition @ 10 uM” value: 2.15% for the first, 1.8% for the second.

Going from `CC(C)NC(=O)CN(c1ccc(Oc2ccccc2)cc1)S(C)(=O)=O` to `O=C(CN(Cc1ccccc1)S(=O)(=O)c1ccc(Br)cc1)Nc1ccc(F)cc1`, the “% Inhibition @ 10 uM” value rises from 0.189% to 7.03%.

First: CCCCN1C(=O)NC(NC(=O)c2ccc(F)cc2)(C(F)(F)F)C1=O (centres unmarked)
Second: COc1cc(/C=C2\SC(=O)N(Cc3ccc(F)cc3)C2=O)c(Br)cc1O
The “% Inhibition @ 10 uM” value of the first is lower: 1.01% for the first, 1.81% for the second.

Compared with `Clc1cccc(-c2noc3ncnc(N4CCCC4)c23)c1`, `Clc1ccc(N2CCN(Cc3ccc(Cl)c(Cl)c3)CC2)cc1` is lower in “% Inhibition @ 10 uM” value: 7.21% for the first, -5.5% for the second.

Compared with `O=C(CCSc1ccc(Cl)cc1)NC12CC3CC(CC(C3)C1)C2`, `CC(C)CN(CC(C)C)c1nnc(NC(=O)NC23CC4CC(CC(C4)C2)C3)s1` is higher in “% Inhibition @ 10 uM” value: 1.64% for the first, 2.27% for the second.

Compared with `c1ccc(CCN2CCC(NCCN3CCCCC3)CC2)cc1`, `O=C(O)C1CSC2(CCN(Cc3ccccc3)CC2)N1` (centres unmarked) is lower in “% Inhibition @ 10 uM” value: 3.48% for the first, 1.92% for the second.

First: CCC(=O)Nc1ccc(S(=O)(=O)Nc2cc(C)cc(C)c2)cc1
Second: Cc1ccc(NC(=O)CC2SC(Nc3ccc(C)c(C)c3)=NC2=O)cc1 (centres unmarked)
The “% Inhibition @ 10 uM” value of the first is lower: 1.62% for the first, 3.35% for the second.

Going from `CCOc1ccc2nc3ncccc3c(O)c2c1` to `CCc1ccc(S(=O)(=O)c2cnc3ccc(OC)cc3c2O)cc1`, the “% Inhibition @ 10 uM” value rises from -5.51% to -1.7%.

Going from `O=C1NCCc2c1[nH]c1c(Cl)ccc(Cl)c21` to `O=C1c2cccc3c(Cl)ccc(c23)C(=O)N1Cc1cccs1`, the “% Inhibition @ 10 uM” value falls from 6.47% to 1.61%.

Compared with `N#C/C(=C\c1c(Oc2ccc(Br)cc2)nc2ccccn2c1=O)C(=O)NC1CCCCC1`, `COCCNC(=O)C1CCN(C(=O)c2ccc(-n3ccc4ccccc43)s2)CC1` is lower in “% Inhibition @ 10 uM” value: -0.828% for the first, -1.55% for the second.

Compared with `COc1ccc(CCN2C(=O)CN(Cc3ccccc3)CC2=O)cc1OC`, `COc1cccc(Cn2c(C)c(CNCC(C)c3ccccc3)c(C(=O)O)c2C)c1` (centres unmarked) is lower in “% Inhibition @ 10 uM” value: 3.47% for the first, -3.67% for the second.

Going from `CCCCNC(=O)C(=O)NCCc1c[nH]c2ccccc12` to `CCOC(=O)c1cnc2c(ccc3ccccc32)c1NCCCCCO`, the “% Inhibition @ 10 uM” value falls from -1.82% to -2.65%.

First: Cc1ccc(-c2nc(CS(=O)CC(=O)NCc3cccs3)c(C)o2)cc1 (centres unmarked)
Second: Cc1ccc(C(=O)NCc2cccc(CNC(=O)c3ccc(C)o3)c2)o1
The “% Inhibition @ 10 uM” value of the first is lower: -6.64% for the first, 4.81% for the second.

Compared with `CC(C)Cn1cc(NC(=O)N2CCCCCC2)c2ccccc2c1=O`, `CCCn1c2ccccc2c2cnn(CC(=O)N3CCN(Cc4ccc5c(c4)OCO5)CC3)c(=O)c21` is higher in “% Inhibition @ 10 uM” value: -2.71% for the first, -0.238% for the second.

First: CC(NC(=O)C1CCN(S(=O)(=O)c2c[nH]cn2)CC1)c1ccccc1 (centres unmarked)
Second: Cc1cc2ncc(S(=O)(=O)c3ccccc3)c(-c3ccc(Br)cc3)n2n1
The “% Inhibition @ 10 uM” value of the first is higher: -0.499% for the first, -5.69% for the second.

Going from `Cc1ccc(NC(=O)Nc2ccc(Cl)cc2)cc1NC(=O)Nc1ccc(Cl)cc1` to `Nc1c(C(=O)c2ccc(Cl)cc2)sc2nc(-c3ccccc3)ccc12`, the “% Inhibition @ 10 uM” value rises from -7.35% to -0.261%.

Compared with `Cc1nc2nc(NC(=O)c3cccs3)nn2c(O)c1Cc1ccccc1`, `CCO/C(O)=C1\C(C)=Nc2nc(SCc3ccccc3Cl)nn2C1c1cccs1` (centres unmarked) is higher in “% Inhibition @ 10 uM” value: 3.66% for the first, 4.85% for the second.

Compared with `CCCN(CCC)c1sc(S(C)(=O)=O)nc1S(=O)(=O)c1ccc(C)cc1`, `NS(=O)(=O)c1ccc2c(c1)C(=O)c1cc(S(N)(=O)=O)ccc1-2` is higher in “% Inhibition @ 10 uM” value: 5.84% for the first, 7.49% for the second.

First: CCCc1nc2nc(C)cc(NCCc3ccc(Cl)cc3)n2n1
Second: COc1ccc(CNc2nc(-c3ccco3)nn2C(=O)COc2ccc(Cl)cc2)cc1
The “% Inhibition @ 10 uM” value of the first is lower: -6.22% for the first, 5.06% for the second.

Compared with `CCN(CC)c1cc(=O)n2c(n1)SCCC2`, `CCN1CCCC1CNC(=O)CN(C)c1nnc(N2CCCC2=O)s1` (centres unmarked) is lower in “% Inhibition @ 10 uM” value: 0.558% for the first, -5.63% for the second.

Going from `CC1=CC(=Cc2sc3ccccc3[n+]2C)C=C(C)O1` to `c1ccc(-c2nc3cnc4ccccc4c3s2)cc1`, the “% Inhibition @ 10 uM” value rises from 4.41% to 14.9%.

First: COC(=O)c1ccc(C2Oc3c(OC)cccc3C3CC(c4cc(C)ccc4O)=NN32)cc1 (centres unmarked)
Second: COc1cc(OC)nc(Oc2cccc(Cl)c2C)n1
The “% Inhibition @ 10 uM” value of the first is lower: 0.0719% for the first, 1.89% for the second.

Going from `CC(C)(C)NC(=O)c1oc2ccccc2c1NC(=O)c1ccc2c(c1)OCO2` to `CCN(CC)CCNC(=O)c1nnc(-c2ccc3c(c2)OCO3)o1`, the “% Inhibition @ 10 uM” value rises from -2.9% to 0.943%.

Going from `CCOc1ccc(-c2c(C)nn3c(O)c(N4CCOCC4)c(C)nc23)cc1OCC` to `Cc1ccc(C(=O)N/C(=C\c2ccco2)C(=O)NCCN2CCOCC2)cc1C`, the “% Inhibition @ 10 uM” value rises from -6.09% to 0.777%.

Compared with `Cc1ccc(C23CC4CC(C2)CC(C(C)N)(C4)C3)cc1C` (centres unmarked), `COc1cccc(C2=NOC(C(=O)N3C(C)CCCC3C)C2)c1` (centres unmarked) is higher in “% Inhibition @ 10 uM” value: -4.67% for the first, -3.45% for the second.

First: O=S1(=O)CC2OC3CS(=O)(=O)CC3OC2C1 (centres unmarked)
Second: CC(=O)N1[C@@H](c2ccc(Cl)cc2)SC[C@H]1C(=O)N1CCN(c2ccccc2)CC1
The “% Inhibition @ 10 uM” value of the first is lower: -3.98% for the first, 0.35% for the second.

Compared with `NS(=O)(=O)c1ccc(CNC(=O)CSc2nc3cccnc3[nH]2)cc1`, `O=c1ncn(-c2ccc(F)cc2)c2ncccc12` is higher in “% Inhibition @ 10 uM” value: -1.85% for the first, 1.94% for the second.

Going from `CC(C)(C)NCCCCOc1ccc(Br)cc1` to `CCN(CC)CCCOc1cccc2ccccc12`, the “% Inhibition @ 10 uM” value rises from -4.18% to 3%.

First: O=C(CCCCC(=O)N1CCN(c2ccccc2)CC1)N1CCN(c2ccccc2)CC1
Second: Clc1cccc2c1Sc1ccccc1CC2N1CCNCC1 (centres unmarked)
The “% Inhibition @ 10 uM” value of the first is higher: -1.84% for the first, -2.29% for the second.

Going from `CC(C)CC(C(=O)NCC#N)c1csc(N2CCN(C)CC2)n1` (centres unmarked) to `CC1(C)OC(=O)N(CCc2ccccc2)C1(C)O` (centres unmarked), the “% Inhibition @ 10 uM” value rises from -4.72% to -0.99%.

Going from `COc1ccc(C(=O)Nc2cccnc2Cl)c(OC)n1` to `O=C(NCc1ccco1)c1cnn2c(C(F)(F)F)cc(-c3ccc(Br)cc3)nc12`, the “% Inhibition @ 10 uM” value rises from 1.88% to 4.03%.

Going from `Cc1cc(CNC(=O)c2c(F)cccc2F)c2ccccc2n1` to `Cc1nc2ccc(-c3ccc4nc(C)oc(=O)c4c3)cc2c(=O)o1`, the “% Inhibition @ 10 uM” value falls from 0.9% to -0.0217%.

Compared with `O=C(NCc1cccnc1)c1cc(C2CC2)[nH]n1`, `CCOc1cc(S(=O)(=O)NCc2ccccn2)c(C)cc1C` is lower in “% Inhibition @ 10 uM” value: 2.62% for the first, -0.469% for the second.

With `CCCCNc1nc(Oc2ccc(OCC)nn2)nc(N(C)C)n1` the “% Inhibition @ 10 uM” value was -3.49%.
